# According to the supplement of paper PMC4894684:
# Structures can show the parent of a compound that is named as a salt. ± gives the standard deviation of the averaged measurements. Out of some 1,000 compounds screened, about 15 (2%) showed an effect of 50% or more. This is one part of the list.
# Tested on: HFF
# Experiment: uninfected host cell viability relative to vehicle control; higher = less host cell toxicity
# Conditions: 5 µM; 72 h; oxygen 21 %
# 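Also: confluent HFF monolayers, run in parallel with the Toxoplasma growth screen as a host toxicity counterscreen.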
row,Structure (SMILES),uninfected host cell viability [%]
1,CC1(C)O[C@@H]2[C@@H](CO[C@@]3(COS(N)(=O)=O)OC(C)(C)O[C@@H]23)O1 [Topiramate],89 ± 2.8
2,O=C1Nc2ccc(I)cc2/C1=C/c1cc(Br)c(O)c(Br)c1,88.07 ± 0.46
3,COc1cc2c(cc1OC)-c1c/c(=N\c3c(C)cc(C)cc3C)n(C)c(=O)n1CC2 [Trequinsin hydrochloride],78.53 ± 0.23
4,N=C(CC(O)COc1ccccc1-c1ccccc1)N1CCCCC1 (stereo not given),89.4 ± 2.9
5,CCCOc1ccc(Br)cc1-c1cc(-c2ccc(Cl)cc2)[nH]c1-c1ccncc1,86 ± 1.1
6,Cc1nc2c(O)cccc2c(=O)[nH]1,84.42 ± 0.42
7,CCCCc1nc2ccn(Cc3cccs3)c(=O)c2n1Cc1ccc(-c2ccccc2-c2nn[nH]n2)cc1,89.2 ± 2.5
8,Cc1cc(F)c(Nc2ncnc3cc(OCc4ccccc4)ccc23)cc1O,83.6 ± 3.9
9,COc1ccc2c3c1O[C@H]1C[C@@H](O)C=C[C@@]31CCN(C)C2 [Galanthamine hydrobromide],89 ± 1.9
10,O=C1c2ccccc2CCC1CNCCc1ccc(O)cc1 (stereo not given) [HEAT hydrochloride],89.7 ± 6
11,Oc1cc(O)cc(/C=C/c2ccc(O)c(O)c2)c1 [Piceatannol],87.1 ± 1.1
12,CCCCCS(=O)(=O)CCCCCCCCCCn1c(-c2ccc(O)cc2)c(C)c2cc(O)ccc21,90.97 ± 0.31
13,NC(C(=O)O)c1ccc(C(=O)O)c(C(=O)O)c1 (racemic),90 ± 0.93
14,Nc1ncnc2c1ncn2[C@@H]1O[C@H](CO)C[C@H]1O [Cordycepin],88.5 ± 4.2
15,Nc1nc(Nc2ccccc2)nc2c1ncn2[C@@H]1O[C@H](CO)[C@@H](O)[C@H]1O,89.8 ± 5.9
16,Cc1ccc(S(=O)(=O)/C=C/C#N)cc1,94.2 ± 1.7
17,O=C(OCCN1CCCCC1)c1c[nH]c2ccccc12,86.1 ± 0.54
18,Cc1cccc(C)c1NC(=O)C[N+](C)(C)C,84.7 ± 0.16
19,O=C1CC2(CCCC2)CC(=O)N1CCCCNCC1COc2ccccc2O1 (stereo not given),86.03 ± 0.16
20,CCCc1c(OCCCOc2ccc(OCC(=O)O)cc2)ccc(C(C)=O)c1O,92.4 ± 3.6
21,CC[C@H](C)C(=O)O[C@H]1C[C@H](O)C=C2C=C[C@H](C)[C@H](CC[C@@H](O)C[C@@H](O)CC(=O)O)[C@H]21 [Pravastatin sodium salt],87.2 ± 2.7
22,CN1CC(=O)N=C1NC(=O)Nc1cccc(Cl)c1 [Fenobam],80.93 ± 0.68

row,Structure (SMILES),uninfected host cell viability [%]
1,CC1(C)CC(=O)C(C2C3=C(CC(C)(C)CC3=O)Oc3ccccc32)C(=O)C1 (stereo not given),86.9 ± 2.4
2,O=S(=O)(c1cccc2c(Cl)cccc12)N1CCCNCC1 [ML 9 hydrochloride],83.68 ± 0.6
3,CNCC[C@@H](Oc1ccccc1C)c1ccccc1 [Tomoxetine hydrochloride],86.5 ± 2
4,CO[C@@H]1[C@H](O)[C@@H](CO)O[C@H]1n1cnc2c(NC3CCCCC3)ncnc21,92.91 ± 0.28
5,NS(=O)(=O)C#Cc1ccccc1 [Pifithrin->m],97.12 ± 0.7
6,CC(C)C1C2CCC(C2)C1N (stereo not given),67.2 ± 4.1
7,"Nc1ncnc2c1nc(Br)n2[C@@H]1O[C@@H]2COP(=O)(O)O[C@H]2[C@H]1O [8-Bromo-cAMP, sodium salt]",87.7 ± 2
8,Nc1nccc(-c2ccc3noc(-c4ccc(Cl)cc4)c3c2)n1 [PIM 1 Inhibitor 2],84.3 ± 2.9
9,CNCCCCOc1ccccc1Cc1ccccc1 [Bifemelane hydrochloride],87.7 ± 3
10,O=C1NN(C(=O)Nc2ccc(Br)cc2)[C@@H](c2ccccc2)[C@@H]1c1ccccc1,91.67 ± 0.67
11,N[C@@H]1CCN(O)C1=O,93.8 ± 8.6
12,CCN(CC)CC1CCCCN1CC(=O)N1c2ccccc2C(=O)Nc2cccnc21 (stereo not given),83.86 ± 0.46
13,NC(=O)Nc1sc(-c2ccc(F)cc2)cc1C(N)=O,78.61 ± 0.24
14,Cn1cc(C2=C(c3cn(CCCSC(=N)N)c4ccccc34)C(=O)NC2=O)c2ccccc21 [Ro 31-8220 mesylate],14.2 ± 0.54
15,CCCCc1nn(-c2ccccc2C(F)(F)F)c(=O)n1Cc1ccc(-c2ccccc2S(=O)(=O)NC(=O)c2sccc2C)cc1,84.8 ± 3.6
16,O=[N+]([O-])c1cc(Cl)ccc1S(=O)(=O)N1CCN(Cc2ccccc2)CC1,98.8 ± 3.2
17,Cc1c(CC(C)(C)C(=O)O)n(Cc2ccc(Cl)cc2)c2ccc(F)cc12,91.8 ± 12
18,CS(=O)(=O)c1ccc(Cn2c3c(c4cc(F)cc(F)c42)CCCC3CC(=O)O)cc1 (stereo not given),97.5 ± 3.3
19,C/N=C(/NC#N)NCCSCc1csc(NC(=N)N)n1 [Tiotidine],88.5 ± 3.6
20,CC[C@]1(O)C[C@@H]2CN(CCc3c([nH]c4ccccc34)[C@@](C(=O)OC)(c3cc4c(cc3OC)N(C)[C@H]3[C@@](O)(C(=O)OC)[C@H](OC(C)=O)[C@]5(CC)C=CCN6CC[C@]43[C@@H]65)C2)C1 [Vinblastine sulfate],62.13 ± 0.3
21,CCCCC#Cc1nc(NC)c2ncn([C@@H]3O[C@H](CO)[C@@H](O)[C@H]3O)c2n1,87.5 ± 1.2
22,CN(CCOc1ccc(-c2ccc3c(c2)OCO3)cc1C(C)(C)C)CC(=O)O,89.62 ± 0.17

row,Structure (SMILES),uninfected host cell viability [%]
1,N[C@@H](CSS(=O)(=O)O)C(=O)O [S-Sulfo-L-cysteine sodium salt],99.5 ± 1.1
2,CC(C)c1onc(-c2c(Cl)cccc2Cl)c1COc1ccc(/C=C/c2cccc(C(=O)O)c2)c(Cl)c1,96.2 ± 2.9
3,C[C@@]1(O)[C@H](O)[C@@H](CO)O[C@H]1n1cnc2c(NC3CCCC3)nc(Cl)nc21,102 ± 2.9
4,Cc1[nH]c(/C=C2\C(=O)Nc3ccc(S(=O)(=O)Cc4c(Cl)cccc4Cl)cc32)c(C)c1C(=O)N1CCC[C@@H]1CN1CCCC1,89.5 ± 2.3
5,CC(C)N(CCC(=O)c1ccc2ccccc2c1)Cc1ccccc1,85.3 ± 0.21
6,CC(O)(C(=O)Nc1ccc(S(=O)(=O)c2ccccc2)cc1)C(F)(F)F (stereo not given),99.7 ± 2.5
7,CC(CCc1ccc(O)cc1)NCCc1ccc(O)c(O)c1 (stereo not given) [Dobutamine hydrochloride],85.8 ± 4.4
8,"C1CCC2(CC1)CCNCC2 [4,4-Pentamethylenepiperidine hydrochloride]",84.79 ± 0.68
9,CC1=C(C(=O)OCCN(Cc2ccccc2)c2ccccc2)C(c2cccc([N+](=O)[O-])c2)C(P2(=O)OCC(C)(C)CO2)=C(C)N1 (stereo not given) [Efonidipine hydrochloride monoethanolate],98.4 ± 7.4
10,CCN1CCC[C@H]1CNC(=O)c1cc(S(N)(=O)=O)ccc1OC [(S)-(-)-Sulpiride],90.2 ± 4.3
11,Clc1ccc(-c2nc3sccn3c2/C=N/OCc2ccc(Cl)c(Cl)c2)cc1,98.6 ± 1.2
12,COc1cc2ncnc(Nc3ccc(Oc4ccccc4)cc3)c2cc1OC,79.69 ± 0.58
13,CC1CCN(CCCC(=O)c2ccc(F)cc2)CC1 [Melperone hydrochloride],88.9 ± 1.8
14,O=C1C(Cl)=C(NCCN2CCOCC2)C(=O)c2ncccc21,34.44 ± 0.16
15,COc1cc2c(cc1OC)-c1cc3nc4ccccc4nc3n1C(C)(C)C2,95.5 ± 3
16,COc1ccccc1OCCNCC(O)COc1cccc2[nH]c3ccccc3c12 (stereo not given) [Carvedilol],92.4 ± 0.94
17,COc1ccc(CCCOC(Cn2ccnc2)c2ccc(OC)cc2)cc1 (stereo not given),96.51 ± 0.62
18,O=C(NCC1CCCCN1)c1cc(OCC(F)(F)F)ccc1OCC(F)(F)F (stereo not given) [Flecainide acetate],92.7 ± 6.4
19,CCN1CCCC1CNC(=O)c1cc(S(=O)(=O)CC)c(N)cc1OC (stereo not given) [Amisulpride],87.2 ± 0.18
20,Nc1nc(N)nc(-c2cc(Cl)ccc2Cl)n1 [Irsogladine maleate],88.9 ± 3.2
21,CC(C)[C@H](CO)Nc1nc(Nc2cc(N)cc(Cl)c2)c2ncn(C(C)C)c2n1 [Aminopurvalanol A],73.3 ± 1.1
22,O=C(c1ccc(OCCN2CCCCC2)cc1)c1c(-c2ccc(O)cc2)sc2cc(O)ccc12 [Raloxifene hydrochloride],94.4 ± 2.2

row,Structure (SMILES),uninfected host cell viability [%]
1,COc1cc(C[C@H]2C(=O)OC[C@@H]2Cc2ccc(OC)c(OC)c2)ccc1O [Arctigenin],90 ± 1.6
2,CN(C)[C@@H]1CCc2[nH]c3ccc(NC(=O)c4ccc(F)cc4)cc3c2C1,93.5 ± 1.4
3,CCOC(=O)C1=C(C)NC(C)=C(C(=O)OC)C1c1cccc([N+](=O)[O-])c1 (stereo not given) [Nitrendipine],85.5 ± 2
4,Cc1nc2c(OCc3ccccc3)cccn2c1CC#N,86.4 ± 2.8
5,c1ccc(N2CCN(CCCOc3ccc4c(c3)OCO4)CC2)cc1 [BP 554 maleate],90.9 ± 6.9
6,N[C@@H](C(=O)O)c1ccc(O)c(C(=O)O)c1 [(R)-3-Carboxy-4-hydroxyphenylglycine],87 ± 2.7
7,COc1cc(N)c(Cl)cc1C(=O)NC1CCN(CCCOc2ccc(F)cc2)CC1OC (stereo not given) [Cisapride],90.89 ± 0.45
8,CCN(CC)CCCCC1CCN(CC(=O)N2c3ccccc3C(=O)Nc3cccnc32)CC1,89.2 ± 4.3
9,COc1ccccc1N1CCN(CCN2C(=O)CC3(CCCC3)CC2=O)CC1 [BMY 7378 dihydrochloride],94.8 ± 2.5
10,"C[C@H](NC(=O)/C(C#N)=C/c1ccc(O)c(O)c1)c1ccccc1 [Tyrphostin B44, (+) enantiomer]",86.1 ± 2
11,O=S(=O)(NCCNC/C=C/c1ccc(Br)cc1)c1cccc2cnccc12 [H 89 dihydrochloride],83 ± 1.2
12,CN(C)CCCC1(c2ccc(F)cc2)OCc2cc(C#N)ccc21 (stereo not given) [Citalopram hydrobromide],88.98 ± 0.74
13,CCn1c(=O)n(C2=C(CO)CN(CC3CCCCCCC3)CC2)c2ccccc21,94 ± 4.1
14,O=C1c2ccccc2C(Cc2ccncc2)(Cc2ccncc2)c2ccccc21 [XE 991 dihydrochloride],96.4 ± 1.7
15,O=C1CCc2c(ccc3ccccc23)O1 [Splitomicin],84 ± 0.96
16,Cc1c(OCC(F)(F)F)ccnc1C[S+]([O-])c1nc2ccccc2[nH]1 (stereo not given) [Lansoprazole],81.3 ± 3.4
17,O=C(Nc1ccc(C(F)(F)F)cn1)N1CCN(c2ncccc2C(F)(F)F)CC1,85.9 ± 1.2
18,O=C(O)c1ccccc1Nc1cccc(OCc2ccc3ccccc3n2)c1 [SR 2640 hydrochloride],86.3 ± 4.8
19,CC(=O)NCCc1c(Cc2ccccc2)[nH]c2ccccc12 [Luzindole],101 ± 4.8
